The values below come from article PMC4336329 (PLoS ONE, 2015).

Screen size: about 310,000 compounds; about 14,000 (4.5%) showed an effect of 50% or more. The effect is printed as a negative number. This is one part of the list.
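Note: peak tail current of the secondary pulse compared with the same well before compound.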

The target in this experiment is human ether-à-go-go-related gene (hERG) potassium channel (human, UniProt Q12809). The experiment is described as follows: primary screen, population patch clamp on CHO cells stably expressing hERG.
human ether-à-go-go-related gene (hERG) potassium channel, sequence (Q12809 whole entry, looked up): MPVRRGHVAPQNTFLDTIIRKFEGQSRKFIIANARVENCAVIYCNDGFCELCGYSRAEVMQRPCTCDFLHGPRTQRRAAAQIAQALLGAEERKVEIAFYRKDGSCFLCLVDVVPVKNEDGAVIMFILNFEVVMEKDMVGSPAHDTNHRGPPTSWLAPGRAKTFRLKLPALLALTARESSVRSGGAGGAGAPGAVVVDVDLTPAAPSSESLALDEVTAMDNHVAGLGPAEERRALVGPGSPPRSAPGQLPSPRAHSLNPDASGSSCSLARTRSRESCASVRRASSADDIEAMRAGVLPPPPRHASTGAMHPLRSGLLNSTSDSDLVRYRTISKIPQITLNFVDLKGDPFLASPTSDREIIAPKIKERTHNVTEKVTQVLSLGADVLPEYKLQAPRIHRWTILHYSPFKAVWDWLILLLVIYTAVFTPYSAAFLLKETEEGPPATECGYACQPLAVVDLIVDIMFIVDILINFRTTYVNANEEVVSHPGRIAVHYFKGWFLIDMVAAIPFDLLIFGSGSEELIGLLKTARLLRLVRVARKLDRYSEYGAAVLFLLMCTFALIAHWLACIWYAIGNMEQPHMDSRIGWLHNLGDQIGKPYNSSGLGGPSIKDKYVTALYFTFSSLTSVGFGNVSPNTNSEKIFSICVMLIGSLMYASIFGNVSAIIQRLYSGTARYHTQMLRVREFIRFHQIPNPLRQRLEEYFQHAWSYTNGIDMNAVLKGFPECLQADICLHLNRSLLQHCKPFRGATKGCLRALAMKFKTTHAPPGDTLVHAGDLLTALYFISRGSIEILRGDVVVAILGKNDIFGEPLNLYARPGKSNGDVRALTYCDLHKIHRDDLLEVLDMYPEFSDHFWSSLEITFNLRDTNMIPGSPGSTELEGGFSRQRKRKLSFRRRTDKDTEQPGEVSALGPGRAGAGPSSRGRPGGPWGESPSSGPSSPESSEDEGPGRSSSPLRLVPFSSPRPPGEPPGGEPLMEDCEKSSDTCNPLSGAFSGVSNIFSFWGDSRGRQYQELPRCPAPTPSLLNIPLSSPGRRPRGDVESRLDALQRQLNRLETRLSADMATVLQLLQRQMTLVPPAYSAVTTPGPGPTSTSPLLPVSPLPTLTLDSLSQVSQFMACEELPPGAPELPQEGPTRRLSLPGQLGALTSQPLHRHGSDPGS
For the molecule `CCOc1ccc(Br)cc1S(=O)(=O)Nc1nc(CN2CCOCC2)nc2sc(C)c(C)c12`, the “hERG current change (%, negative = inhibition) at 10uM” value is on record as -8.26%. In the case of `COc1ccc([N+](=O)[O-])cc1NC(=O)C(C)OC(=O)CC1CCCC1` (centres unmarked), the “hERG current change (%, negative = inhibition) at 10uM” value is listed as -35.7%. Consider `O=C(O)CC(NC(=O)Cc1ccccc1)c1cc([N+](=O)[O-])ccc1Cl` (centres unmarked), for which the “hERG current change (%, negative = inhibition) at 10uM” value was determined as 14.1%.

For `CCO[C@@H]1OC(C(=O)NC2CC2)=C[C@H](C(C)(C)C)[C@H]1CCCO`, the “hERG current change (%, negative = inhibition) at 10uM” value was found to be 9.54%. Then `CCCCNC(NCCCC)=C(S(=O)(=O)CC)S(=O)(=O)CC`, with 1.19%; and `O=C(CN(C(=O)CCC(=O)Nc1nccs1)c1ccc2c(c1)OCO2)NCc1ccc(F)cc1`, with 6.42%.

On to `O=C(Nc1ccnn1C1CCN(C2CCC2)CC1)c1ccccc1`, for which the “hERG current change (%, negative = inhibition) at 10uM” value is reported as -0.539%. Take `NC(N)=NN=C1c2ccccc2-c2ccccc21`: the “hERG current change (%, negative = inhibition) at 10uM” value stood at 11.4%. As for `CCCCNC(=O)CSc1nc2ccccc2n1S(=O)(=O)c1ccc(Cl)cc1`, the “hERG current change (%, negative = inhibition) at 10uM” value was determined as 11%. Regarding `O=C(CCNC(=O)c1ccc(Br)cc1)NCC1CCCO1` (centres unmarked), the “hERG current change (%, negative = inhibition) at 10uM” value is reported as 3.3%. In the case of `O=C(Nc1ccccc1F)c1ccco1`, the “hERG current change (%, negative = inhibition) at 10uM” value is listed as 11.8%.

On to `COc1ccc(-c2nc(CS(=O)CC(=O)NCc3ccccc3)c(C)o2)cc1OC` (centres unmarked), for which the “hERG current change (%, negative = inhibition) at 10uM” value is -7.51%. As for `CC(C)(C)NC(=O)COC(=O)CCC(=O)c1ccc(Cl)cc1`, the figure is 4.85%. On to `O=C(NC1CC1)C1CC(=O)N(c2cccc(Cl)c2)C1` (centres unmarked), for which the “hERG current change (%, negative = inhibition) at 10uM” value turned out to be 9.4%. `CCOC(=O)c1nc(S(C)(=O)=O)ncc1N1CCOCC1`: the “hERG current change (%, negative = inhibition) at 10uM” value was 14.8%.

Regarding `Cc1ccc(C)c(SCC(=O)c2ccc[nH]2)c1`, the “hERG current change (%, negative = inhibition) at 10uM” value was -14.8%. As for `Cc1nc2ccc([N+](=O)[O-])cc2nc1C`, the figure is 3.55%. As for `CCOC(=O)c1ccc(NC(=O)C2CCCN(S(=O)(=O)c3cnc[nH]3)C2)cc1` (centres unmarked), the “hERG current change (%, negative = inhibition) at 10uM” value is given as 6.66%. As for `Cc1ccc(-c2ccc(=O)n(CC(=O)NCCN(CC(C)C)CC(C)C)n2)cc1`, the “hERG current change (%, negative = inhibition) at 10uM” value is -16.3%.

As for `Cc1cccc(OCCNC(=O)c2cncc(Br)c2)c1`, the “hERG current change (%, negative = inhibition) at 10uM” value was -16.2%. For `O=C(ONc1ccc(N=NC(=O)c2ccccc2O)cc1)c1ccccc1`, the “hERG current change (%, negative = inhibition) at 10uM” value is listed as -0.285%. `NNC(=O)c1[nH]c2ccc([N+](=O)[O-])cc2c1-c1ccccc1`: the “hERG current change (%, negative = inhibition) at 10uM” value was 14.4%. Regarding `CCOc1cc(NS(C)(=O)=O)c(OCC)cc1NC(=O)c1cccs1`, the “hERG current change (%, negative = inhibition) at 10uM” value is given as -15.8%. `COC(=O)c1ccc(/C=N\NC(=O)CC(=O)NCCc2ccccc2)cc1`: the “hERG current change (%, negative = inhibition) at 10uM” value worked out at 19.8%. In the case of `COc1ccc(Cl)cc1C(=O)OCC(=O)NC(=O)c1cccn1C`, the “hERG current change (%, negative = inhibition) at 10uM” value is on record as -9.51%. Then `CC(=O)C1C(c2ccc(Cl)cc2)c2c(noc2C)CC1(C)O` (centres unmarked), with 12.2%; and `COc1cc(C=O)ccc1OCc1ccccc1Br`, with -2.64%; and `NS(=O)(=O)c1ccc(NC(=O)COC(=O)C2(c3ccc(F)cc3)CCCC2)cc1`, with 9.44%. As for `COc1ccc(Nc2nnc(SCC(=O)NC3CC3)s2)cc1`, the figure is -7.7%. As for `Cc1c2cnn(CC(=O)N3CCOCC3)c(=O)c2c(C)n1Cc1ccccc1F`, the figure is 7.04%; as for `CCN1CCN(C(=O)c2nn(-c3ccccc3)c(=O)c3ccccc23)CC1`, -2.92%.

Take `O=C(c1ccco1)N1CCN(C(c2cccs2)c2nnnn2C2CCCCC2)CC1` (centres unmarked): the “hERG current change (%, negative = inhibition) at 10uM” value is recorded as -42.9%. Then `CC(NC(=O)CCC(=O)N1CCCCCC1)c1ccccc1` (centres unmarked), with 19.4%. Then `Cc1ccc(-c2nn(-c3ccccc3)cc2C2SCC(=O)N2Cc2ccccc2)o1` (centres unmarked), with 28.9%; and `NC(=O)c1ccsc1NC(=O)c1ccco1`, with -0.908%. In the case of `Cc1cc(Cl)ccc1OCC(=O)Nc1cccc(S(=O)(=O)N2CCCC2)c1`, the “hERG current change (%, negative = inhibition) at 10uM” value is -1.87%. Turning to `CC(=O)Nc1ccc(NC(=O)COC(=O)c2n[nH]c3ccccc23)cc1`, the “hERG current change (%, negative = inhibition) at 10uM” value is reported as 4.1%. On to `O=C(O)CCNS(=O)(=O)c1ccc2c(c1)CCCC2`, for which the “hERG current change (%, negative = inhibition) at 10uM” value is recorded as 24.4%. Regarding `O=C(O)c1cc(Cl)ccc1-c1ccc(/C=C/c2cc(C(F)(F)F)[nH]c(=O)n2)o1`, the “hERG current change (%, negative = inhibition) at 10uM” value was 11.2%. On to `COC(=O)c1ccc2ccn(CC(=O)NC3CCCCC3)c2c1`, for which the “hERG current change (%, negative = inhibition) at 10uM” value came to 1.81%. In the case of `Cc1nc2ccc(NC(=O)N3CCN(c4ccccn4)CC3)cc2s1`, the “hERG current change (%, negative = inhibition) at 10uM” value is -7.27%. Then `COc1ccc(/C=C(/NC(=O)c2ccccc2Cl)C(=O)O)cc1`, with 11.2%; and `O=C(CCNS(=O)(=O)c1ccc(Cl)cc1)OCC(=O)c1ccc[nH]1`, with -22.9%. Regarding `CCOC(=O)c1c(O)c2c(n(Cc3ccco3)c1=O)CCCC2`, the “hERG current change (%, negative = inhibition) at 10uM” value is listed as 14%. As for `CSc1ccc(CN(C)Cc2cc(=O)oc3c(C)c(C)ccc23)cc1`, the figure is 2.99%. As for `O=C(NC1CCC(C(=O)O)CC1)OCc1ccccc1` (centres unmarked), the figure is 21.9%; as for `CCC(=O)N(Cc1cc(=O)[nH]c2ccccc12)c1ccccc1OC`, 3.26%. As for `CCN1CCN(c2nc(-c3ccccc3Cl)nc3ccccc23)CC1.Cl`, the figure is -69.9%; as for `COCCNc1nnc(SCC(=O)Nc2cc(C)on2)s1`, 4.13%; as for `Oc1ccc(C[C@@H]2CNCCN2CCc2cccc(F)c2)cc1`, -35.7%. As to `Cc1cc2c([nH]c3ccccc32)c(C)[nH+]1.[Cl-]`, the “hERG current change (%, negative = inhibition) at 10uM” value is -22.7%. Consider `CC1=C(C(=O)Nc2ccccc2C(=O)N2CCC(C)CC2)SCCO1`, for which the “hERG current change (%, negative = inhibition) at 10uM” value is 12%.

As to `CCOC(=O)CNC(=O)CSc1nc(-c2ccc(OC)cc2)ns1`, the “hERG current change (%, negative = inhibition) at 10uM” value is reported as -6.8%. For `Cl.NC1CCN(c2cccc(Cl)n2)CC1`, the “hERG current change (%, negative = inhibition) at 10uM” value is given as -1.4%. `CCN(Cc1ccncc1)C(=S)NCc1ccccc1`: the “hERG current change (%, negative = inhibition) at 10uM” value is -3.62%. Then `O=C(CSC1=NCCS1)c1ccc(Cl)cc1`, with 16.3%; and `CSc1ccc(Cl)c(C(=O)OCC(=O)N2CCN(C(=O)c3ccco3)CC2)c1`, with -30.5%; and `Cc1cc(Oc2ncccc2[N+](=O)[O-])c2cc(Cl)ccc2n1`, with 3.03%. Then `Cc1ccc(CN2C(=O)C(=O)N(CC(N)=O)C2=O)cc1`, with 13.7%. `O=C(Nc1ccc2c(c1)OCO2)C1CC(=O)N(c2ccc3c(c2)OCCO3)C1` (centres unmarked): the “hERG current change (%, negative = inhibition) at 10uM” value is 24.9%.

On to `CC1=C2C(=O)C3C(CC=C4CC(OC5OC(O)C(O)C(O)C5CO)CCC43C)C2CCC12OC1CC(C)CNC1C2C` (centres unmarked), for which the “hERG current change (%, negative = inhibition) at 10uM” value is -22.6%.

For the molecule `CCOC(=O)C(C(=O)N(C)C)c1ncc(C(F)(F)F)cc1Cl` (centres unmarked), the “hERG current change (%, negative = inhibition) at 10uM” value is -1.05%. As to `O=C(N/C(=C\c1ccc([N+](=O)[O-])cc1)C(=O)N1CCOCC1)c1ccco1`, the “hERG current change (%, negative = inhibition) at 10uM” value was -69.2%. Then `O=C(CSc1nnc2c(Cl)cc(Cl)cn12)N1CCOCC1`, with -6.52%. `Cc1ccc(NC(=O)C[n+]2ccccc2)cc1C.[Cl-]`: the “hERG current change (%, negative = inhibition) at 10uM” value came to 11.1%.

Turning to `COC(=O)c1cccc(N(C(=O)c2cnccn2)C(C(=O)NCc2ccccc2)c2ccco2)c1` (centres unmarked), the “hERG current change (%, negative = inhibition) at 10uM” value turned out to be 3.59%.

With `CCCCNC(=O)COC(=O)CCC(=O)c1ccc(Cl)cc1`, the “hERG current change (%, negative = inhibition) at 10uM” value is on record as -3.97%. With `CCCc1cc(Nc2ccccc2C)n2ncnc2n1`, the “hERG current change (%, negative = inhibition) at 10uM” value worked out at 1.38%. Turning to `Cc1cc(Cl)ccc1Oc1ncc(CN2CCN(c3ccccc3)CC2)s1`, the “hERG current change (%, negative = inhibition) at 10uM” value was 7.19%. As for `Cc1cccc(Nc2ccccc2)c1`, the figure is -10.5%. Then `CCOC(=O)c1cnc2c(cnn2C)c1NCc1ccc(OC)cc1`, with 16%; and `O=C(N/N=C/c1cccc(Oc2ccccc2)c1)c1ccncc1`, with 14.4%. As to `Cc1ccccc1Nc1c(-c2ccccn2)nc2ccccn12`, the “hERG current change (%, negative = inhibition) at 10uM” value is listed as -8.45%.

For `Fc1ccc(NC(=S)Nc2cccnc2)c(Cl)c1`, the “hERG current change (%, negative = inhibition) at 10uM” value was 16.6%. On to `Cc1ccc(-n2c(C)nc3ccccc3c2=O)cc1C`, for which the “hERG current change (%, negative = inhibition) at 10uM” value is listed as -52.2%. Regarding `Cn1ncc(Br)c1NC(=O)Nc1ccc(OC(F)(F)F)cc1`, the “hERG current change (%, negative = inhibition) at 10uM” value was 8.82%. Then `O=C(COc1ccccc1/C=C1\SC(=O)NC1=O)Nc1ccc(F)cc1`, with 1.31%; and `Cn1c(O)c(C=NC2CC(C)(C)NC(C)(C)C2)c(=O)n(C)c1=O`, with -4.93%. Turning to `CN1CCN(/N=C/c2ccc(N(c3ccccc3)c3ccccc3)cc2)CC1.Cl`, the “hERG current change (%, negative = inhibition) at 10uM” value is given as 9.14%. Regarding `COc1cc(OC)cc(-c2oc(=O)c3cc(OC)c(OC)cc3c2/C=C/c2ccc(F)cc2)c1`, the “hERG current change (%, negative = inhibition) at 10uM” value came out at 4.91%. Regarding `CCCn1c(SCC(=O)N2CCCC2)nc2c1c(=O)n(C)c(=O)n2C`, the “hERG current change (%, negative = inhibition) at 10uM” value is -13.9%. As for `O=C(Nc1cccnc1)c1c(F)cccc1F`, the figure is 11.2%; as for `COc1ccccc1N1CCN(C2CCCN(C(=O)c3oc(C)cc3C)C2)CC1` (centres unmarked), -47.9%; as for `Nc1ncc(Br)cc1S(=O)(=O)NCCC(=O)NCCc1ccccc1`, -2.89%. Take `O=C(Cc1ccccc1)NNC(=S)Nc1ccccc1`: the “hERG current change (%, negative = inhibition) at 10uM” value worked out at 16.5%. For `Cc1ccc(NC(=O)c2ccc3c(c2)OCCO3)cc1`, the “hERG current change (%, negative = inhibition) at 10uM” value was 5.67%.

On to `Nc1ccccc1SCc1c(Cl)cccc1Cl`, for which the “hERG current change (%, negative = inhibition) at 10uM” value was determined as 1.5%. Then `COc1cc(N)ccc1NC(=O)c1cccs1`, with -6.04%.

Turning to `Cn1c(=NC(=O)COc2ccccc2)sc2ccccc21`, the “hERG current change (%, negative = inhibition) at 10uM” value is on record as -8.07%.

For the molecule `CCSc1nc2nn(-c3ccccc3)c(=O)c-2c2n1CCCCC2`, the “hERG current change (%, negative = inhibition) at 10uM” value is reported as -17.1%. Turning to `CC(C)(C)NC(=O)c1cc([N+](=O)[O-])ccc1N1CCCCC1`, the “hERG current change (%, negative = inhibition) at 10uM” value stood at 6.07%. As for `O=C(c1noc2c1CCCC2)N1CCN(c2ccc(F)cc2)CC1`, the figure is 4.41%.
